# Results as given in the RNAGym collection of RNA variant scans (doi:10.1073/pnas.2313332121).
# Variants at the floor of the assay are shown more often than the library holds them.
# B1: TPR 5TU (parent)
# chain: GGAUCUUCUCGAUCUAACAAAAAAGACAAAUCUGCCACAAAGCUUGAGAGCAUCUUCGGAUGCAGAGGCGGCAGCCUUCGGUGGCGCGAUAGCGCCAACGUUCUCAACUAUGACACGCAAAACGCGUGCUCCGUUGAAUGGAGUUUAUCAUG
# Variants of: B1
# Assay: polymerase ribozyme fitness, log enrichment relative to wild type (log ratio); higher = more active; in vitro selection for triplet polymerase activity
# How it was run: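 Both subunits of a heterodimeric triplet polymerase ribozyme were given their own mutant library, built by PCR and transcribed. Each library was annealed with a biotinylated primer, the partner subunit and triplets, incubated frozen at −7 °C, and its extended constructs gel-excised, captured on streptavidin beads and amplified by RT-PCR, all in one round done in triplicate. Fitness is the logarithm of genotype enrichment relative to wild-type enrichment, with replicates averaged by inverse-variance weighting. That logarithm is base 2, and Illumina-sequenced genotypes needed ≥10 input reads and ≥1 read per output.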
row,Variant,polymerase ribozyme fitness (log ratio)
1,A3U C8A U13G A29C C57U G68C C85A C118G,≤ -4.2
2,A3U A24U A91U C99U U127G G143A,≤ -4.2
3,A3G C85G,-3.16
4,A3C G58A C87U,-0.495
5,A3G A22U A40G A60G A64G C129A A142C U146A,≤ -4.2
6,A3C C57A G84A G88C C95U A120U U148A,≤ -4.2
7,A3C A21C C32U C72U G136C,≤ -4.2
8,A3C A12G C27G A29G G48A A49U A64C C99U,≤ -4.2
9,A3C A12G C87A U135G G141U,≤ -4.2
10,A3G A20U C75G C85U G92U,≤ -4.2
11,A3U C36A G42C C87A A89G G100C,≤ -4.2
12,A3C C27G C93U G133C,≤ -4.2
13,A3U A19C C76G G84U C116A,≤ -4.2
14,A3G A29U C51G U55G C87G C108G,≤ -4.2
15,A3C A28C U61A C85U A89U G126A U135C A137G,≤ -4.2
16,A3G A20C G65C G68C A98G C149U G152U,≤ -4.2
17,A3U A22U A39G A40U U55A G65C G88U A91C C108A C125A U144A,≤ -4.2
18,A3U C27U G59U U77A G92U A110G C116G,≤ -4.2
19,A3C U90A,-4.17
20,A3U C38U U53C C57A C95G C125A U134A,≤ -4.2
21,A3C A12G A17G A22C A23U C76A A91C,≤ -4.2

row,Variant,polymerase ribozyme fitness (log ratio)
1,A3G A29U G46C C93U C96A A115U,≤ -4.2
2,A3U A26U G48U U55G C103A G126A,≤ -4.2
3,A3U C14G A28C A91U A97C A122C,≤ -4.2
4,A3C C10A A17U C36A G50C G84C,≤ -4.2
5,A3C U6G A22C A29C C85G C93U C108G G143A,≤ -4.2
6,A3U A16G A30U C54U U55G U56A G68U G88C,≤ -4.2
7,A3C A30G C38U C43U A60C C118G,≤ -4.2
8,A3C A17G C69G C116G A122G,-1.99
9,A3C C5A A52C G65U C99G G133C,≤ -4.2
10,A3U A12G A26C G81A C87G A142C,≤ -4.2
11,A3G A16C C32G G84A G141A,≤ -4.2
12,A3U A26G U61A G92A,≤ -4.2
13,A3C U6G C57U G74C C149U,≤ -4.2
14,A3C U6A A26C C57U U78G U111G U146C,≤ -4.2
15,A3G U6A U31G G88U,≤ -4.2
16,A3G A28G G34U C75U U82A G88U C96U,≤ -4.2
17,A3C C10U C18U A21U A26C C35A,≤ -4.2
18,A3U A26U C38U C87A C96U C123U,≤ -4.2
19,A3C A47C G59C G86A,-3.89
20,A3U C8G A16C A37C U45A C57A C87U A121G U139A U145C G152A,≤ -4.2
21,A3U A16U C54U U55A C85U A98C C99U C129G G152U,≤ -4.2

row,Variant,polymerase ribozyme fitness (log ratio)
1,A3C A60G,-0.264
2,A3U C8U A20G A97U,≤ -4.2
3,A3U A17U U55G G84A C96A G133U G152C,≤ -4.2
4,A3G U9G C36A G67A G68C A73G U135G,≤ -4.2
5,A3G U61A C72G C87A G136U,≤ -4.2
6,A3U C27U G46C G68U A89C G92A C116A,≤ -4.2
7,A3G A30G C38A G83A U101G,≤ -4.2
8,A3C G84U C87G G124A U139C,≤ -4.2
9,A3G C8G A21U A66C G92C,≤ -4.2
10,A3C C93U C96A A106U C108A C114G G141U U146G U151C,≤ -4.2
11,A3U A20U G50C,≤ -4.2
12,A3C A28U G58U G74U C76A C85A G140U U144G,≤ -4.2
13,A3C A23U A41C C43U U61A A64C C96U A107C A115G,≤ -4.2
14,A3G U4A A17C A52G G94C U102C C131U,-1.71
15,A3C U6G G25U G83A,-3.47
16,A3G C5U C35U C85U A106G,0.235
17,A3U C8A U13G U90A C93A A107G G143C,≤ -4.2
18,A3C A19G A52C U53G G67C C72U C93G A107U A138U G152U,≤ -4.2
19,A3U A23G A37C U61G A73U C103A,≤ -4.2
20,A3U C51U C95U,-1.09
21,A3G A40U C96G A137U U151G,≤ -4.2

row,Variant,polymerase ribozyme fitness (log ratio)
1,A3U A22U A49U C87U A91U,≤ -4.2
2,A3U A28G C35G U56A G68C C87A C105G A121U,≤ -4.2
3,A3G C8U C87G C114G A137G,≤ -4.2
4,A3G C5U A19U A39G A107U C131U U148C,≤ -4.2
5,A3U C8A G70A C85U U134A U139A U144C G152U,≤ -4.2
6,A3C G50A G83C U101C U134G G141C,≤ -4.2
7,A3C U31A G42C C76U C103G G133C U134A,≤ -4.2
8,A3U A12G C43U C51G U53A U56A U82G G83A C93A C96G A98U,≤ -4.2
9,A3U C14G A41U C93A U146G A150U,≤ -4.2
10,A3C U6G A21U A91G A106G,≤ -4.2
11,A3G A24U C69G C93G A119G C132G U139A,≤ -4.2
12,A3U A39C C76G C93U A142C C149U,≤ -4.2
13,A3C A41G G50C U53G G67U G86C G128U C129U U146G C149U,≤ -4.2
14,A3G A41C G42C G58A C85A U148A,≤ -4.2
15,A3C A91U,≤ -4.2
16,A3G C8U G25C U45G U55G G81C C95U C114U G117U A120G A122G,≤ -4.2
17,A3C C18A U44A C54U G83U C85G C96A A106U,≤ -4.2
18,A3G U53C A60C G62C A91G U104C C118A A120U U134G,≤ -4.2
19,A3C A40G C95U A121G A137U A142U,≤ -4.2
20,A3C C8A U55A C96A A120U C125A U135G A138U C149U A150C,≤ -4.2
